Assay results: the RNAGym collection of RNA variant scans (doi:10.1093/nar/gkz1192)
The source gives no read counts; variants with many changes may rest on few reads.

B1: CPEB3 Ribozyme (parent)
chain: UAACAGGGGGCCACAGCAGAAGCGUUCACGUCGCAGCCCCUGUCAGAUUCUGGUGAAUCUGCGAAUUCUGCUGUAUAUCUC

Variants of: B1
Assay: self-cleavage, relative activity (ratio to wild type); higher = more cleavage; in vitro, sequencing
Procedure, shortened: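 CPEB3 self-cleaving ribozyme mutant libraries were made by rounds of error-prone PCR, barcoded, and transcribed in vitro with T7 RNA polymerase for 5 hours at 37°C. Cleavage occurred during transcription and a 15 min DNase I step before EDTA stop. RNAs were reverse transcribed with template switching and Illumina-sequenced, with DNA sequencing mapping barcodes to variants. Relative activity is the variant's cleaved/total read fraction divided by wild type's (minimum 5 reads), averaged across three batches.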

Row | Variant | self-cleavage
1 | U25A U43G A64U U72C | 0.35
2 | U25A U48C U76C U78A | 0.18
3 | U25A U49C A64G | 0.13
4 | U25A U51C C62A A65G U67C U80C | 0.09
5 | U25A U51C U60C | 0.12
6 | U25A U51C U80C | 0.34
7 | U25A U54A C62U A77U | 0.19
8 | U25A U54A U60A G73A | 0.07
9 | U25A U54C A57G A75G | 0.1
10 | U25A U54C U72C A77U | 0.17
11 | U25A U60C U67C U69A | 0.07
12 | U25A U66C A75G U80C | 0.07
13 | U25A U66C U69C U72C | 0.19
14 | U25A U67C U69A | 0.15
15 | U25C A28C A64G U80C | 0.21
16 | U25C A28C C37U U51G U80A | 0.04
17 | U25C A28C G36A U58C U60C | 0.08
18 | U25C A28C U60A | 0.49
19 | U25C A28G A35G C40U G53C U78G | 0.13
20 | U25C A28G A57G U60C G73A | 0.38
21 | U25C A28G C62G | 0.46
22 | U25C A28G G33A U72C | 0.24
23 | U25C A28G G55A U69C U78A U80C | 0.07
24 | U25C A28G G61A U67C | 0.08

Row | Variant | self-cleavage
25 | U25C A28G U31G A57C U76C U78C | 0.08
26 | U25C A28G U43A U60C A77G U80A | 0.21
27 | U25C A28G U43C A65U U76A | 0.05
28 | U25C A28G U43C C68A | 0.07
29 | U25C A28G U49C A65U | 0.04
30 | U25C A28G U49C C71U | 0.11
31 | U25C A28G U51C U72A | 0.13
32 | U25C A28G U74C | 0.11
33 | U25C A28G U76C | 0.46
34 | U25C A28U A45G A47G U51C A77G | 0.1
35 | U25C A28U A45G U67A | 0.1
36 | U25C A28U A64G U72C | 0.17
37 | U25C A28U C40U A45G A65C | 0.15
38 | U25C A28U G30A C39U A77G | 0.13
39 | U25C A28U U31C U67C | 0.09
40 | U25C A35G A45U U54A U58A | 0.08
41 | U25C A35G A57G | 0.22
42 | U25C A35G A57G U60C U80C | 0.13
43 | U25C A35G C40U G42A A45U U60C | 0.09
44 | U25C A35G G36A A45U U58C | 0.14
45 | U25C A35G G36U | 0.21
46 | U25C A35G U41A A47U U69A U78C | 0.07
47 | U25C A35G U41C A56G A65G U66A | 0.09
48 | U25C A35G U43C A57G C59U U78G | 0.2

Row | Variant | self-cleavage
49 | U25C A35G U51A U72C | 0.35
50 | U25C A35G U51G U67A G70A U74A | 0.06
51 | U25C A35G U54A A64U | 0.08
52 | U25C A35G U54A U72A | 0.09
53 | U25C A35G U58A | 0.2
54 | U25C A35G U58G | 0.26
55 | U25C A35G U67A | 0.21
56 | U25C A35G U69C | 0.15
57 | U25C A35U A47G A77G | 0.1
58 | U25C A35U A64U U74C | 0.09
59 | U25C A35U C39U G52A U72C | 0.08
60 | U25C A35U U51C U54C A64G U69A U72C | 0.04
61 | U25C A45C A47G A57C U58C | 0.03
62 | U25C A45G A56G | 0.27
63 | U25C A45G A77U | 0.07
64 | U25C A45G G55A U58C U72A U76C | 0.05
65 | U25C A45G U49A A64G | 0.06
66 | U25C A45G U54C U60G U67A | 0.11
67 | U25C A45U A57G | 0.39
68 | U25C A45U G53C | 0.17
69 | U25C A45U U48C A56U | 0.06
70 | U25C A47G A56G C62U | 0.13
71 | U25C A47G A77U | 0.31
72 | U25C A47G U51A U54C C62U A64U U69G | 0.05

Row | Variant | self-cleavage
73 | U25C A47G U51A U72A | 0.15
74 | U25C A47U A65U C71G | 0.04
75 | U25C A47U U48C A65G U69C | 0.1
76 | U25C A47U U48C U69C | 0.17
77 | U25C A56G A64G U76A | 0.37
78 | U25C A56G A64U | 0.27
79 | U25C A56G C62G | 0.17
80 | U25C A56G U66C U78C U80C | 0.16
81 | U25C A56U A77U | 0.12
82 | U25C A56U U58G U60A U66G | 0.12
83 | U25C A56U U60A U66G | 0.11
84 | U25C A56U U69C U76C | 0.03
85 | U25C A57G A64G | 0.08
86 | U25C A57G U58C U72A | 0.22
87 | U25C A57G U69A | 0.18
88 | U25C A57G U69C U74C | 0.07
89 | U25C A57G U78A | 0.19
90 | U25C A57G U78C | 0.29
91 | U25C A57U G61A | 0.15
92 | U25C A64G U69C | 0.11
93 | U25C A65G A75G U80C | 0.1
94 | U25C A65G U72A | 0.06
95 | U25C A65U U78C | 0.2
96 | U25C A77G U78C | 0.11

Row | Variant | self-cleavage
97 | U25C C27U A35U U41C | 0.11
98 | U25C C27U A56U | 0.15
99 | U25C C27U C62U | 0.11
100 | U25C C29U C68U | 0.19
101 | U25C C32A C38U U78C | 0.14
102 | U25C C32A U49A | 0.34
103 | U25C C32A U72C | 0.1
104 | U25C C32U U54A U76C | 0.15
105 | U25C C34G C38G A57G U58A | 0.13
106 | U25C C34U A45U U51C | 0.06
107 | U25C C34U A45U U67A | 0.06
108 | U25C C34U U69C | 0.1
109 | U25C C34U U72C | 0.13
110 | U25C C37G A45G U67C | 0.16
111 | U25C C37U U54C | 0.22
112 | U25C C38A A47G A56G U69C | 0.05
113 | U25C C38A U41A | 0.32
114 | U25C C38A U49C A75G | 0.04
115 | U25C C38A U49C U54C C71A | 0.11
116 | U25C C38G U48C U66C | 0.13
117 | U25C C38U A45U U54C U66A | 0.07
118 | U25C C38U U41A U54A A56G U66C | 0.17
119 | U25C C40A A45U A56U A77G | 0.17
120 | U25C C40A U60A | 0.11

Row | Variant | self-cleavage
121 | U25C C40U A56G A64G | 0.19
122 | U25C C40U G52C U54C | 0.13
123 | U25C C40U U78A | 0.27
124 | U25C C44U A56U U69C U72C | 0.09
125 | U25C C44U U51A U80C | 0.07
126 | U25C C44U U80C | 0.22
127 | U25C C50U U60C A64G | 0.12
128 | U25C C62U A65G U72G C81A | 0.1
129 | U25C C68U U80C | 0.45
130 | U25C G30A C37U A56U | 0.13
131 | U25C G30A G61C U72G | 0.16
132 | U25C G30A U43C A45U A75G | 0.12
133 | U25C G30C A56U | 0.06
134 | U25C G30U A77U | 0.16
135 | U25C G33A U72A | 0.46
136 | U25C G36A U54C A56G C62U | 0.13
137 | U25C G42A A47G U51A A56G U60A | 0.23
138 | U25C G46A U76A | 0.21
139 | U25C G52C U67C | 0.14
140 | U25C G55U A64G U78C | 0.1
141 | U25C G61A A65G | 0.38
142 | U25C G61C U72G | 0.12
143 | U25C G61U U78A | 0.38
144 | U25C G63A A65G | 0.13

Row | Variant | self-cleavage
145 | U25C G70A A75G U76C | 0.14
146 | U25C G73U U80C | 0.37
147 | U25C U26A A28G | 0.37
148 | U25C U26A A28G U41C A56C | 0.06
149 | U25C U26A C29G U54C U58C | 0.07
150 | U25C U26A C44A | 0.15
151 | U25C U26A G33A A45G | 0.15
152 | U25C U26A U41A C44U U58A U72A | 0.06
153 | U25C U26C A28C G36U | 0.07
154 | U25C U26C A28G U41A U48C | 0.27
155 | U25C U26C A45U A47G U60C U74C | 0.03
156 | U25C U26C A47U | 0.16
157 | U25C U26C A56G | 0.27
158 | U25C U26C A57G U76A | 0.05
159 | U25C U26C A64G | 0.41
160 | U25C U26C C29U A64U | 0.49
161 | U25C U26C C37G A47G | 0.26
162 | U25C U26C G30A A45U A56G A75G | 0.13
163 | U25C U26C U31A U54G U66C A75C | 0.05
164 | U25C U26C U31C A64G U80A | 0.05
165 | U25C U26C U41C U78A | 0.06
166 | U25C U26C U43G U49C A64G | 0.12
167 | U25C U26C U49C U60A | 0.08
